To fix the notation:
T1: human C4b (human, UniProt P0C0L5 20-1744)
T1 chain 1: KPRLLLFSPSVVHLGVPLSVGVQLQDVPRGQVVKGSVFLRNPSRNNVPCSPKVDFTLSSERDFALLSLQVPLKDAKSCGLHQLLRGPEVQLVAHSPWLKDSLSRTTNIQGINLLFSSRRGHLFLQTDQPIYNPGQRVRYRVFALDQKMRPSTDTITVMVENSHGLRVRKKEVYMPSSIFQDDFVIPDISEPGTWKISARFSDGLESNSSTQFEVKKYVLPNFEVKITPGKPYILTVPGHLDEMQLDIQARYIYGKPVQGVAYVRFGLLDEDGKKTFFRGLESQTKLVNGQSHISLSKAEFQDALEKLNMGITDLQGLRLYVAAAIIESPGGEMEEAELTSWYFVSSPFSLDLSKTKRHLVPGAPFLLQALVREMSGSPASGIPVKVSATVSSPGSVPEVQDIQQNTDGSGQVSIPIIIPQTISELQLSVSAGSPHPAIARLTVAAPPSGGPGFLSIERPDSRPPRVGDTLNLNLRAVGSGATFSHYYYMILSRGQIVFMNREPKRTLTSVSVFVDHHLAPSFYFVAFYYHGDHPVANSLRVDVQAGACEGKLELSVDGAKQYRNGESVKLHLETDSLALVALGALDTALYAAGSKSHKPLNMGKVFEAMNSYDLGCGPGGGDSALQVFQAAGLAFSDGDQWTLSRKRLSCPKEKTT
T1 chain 2: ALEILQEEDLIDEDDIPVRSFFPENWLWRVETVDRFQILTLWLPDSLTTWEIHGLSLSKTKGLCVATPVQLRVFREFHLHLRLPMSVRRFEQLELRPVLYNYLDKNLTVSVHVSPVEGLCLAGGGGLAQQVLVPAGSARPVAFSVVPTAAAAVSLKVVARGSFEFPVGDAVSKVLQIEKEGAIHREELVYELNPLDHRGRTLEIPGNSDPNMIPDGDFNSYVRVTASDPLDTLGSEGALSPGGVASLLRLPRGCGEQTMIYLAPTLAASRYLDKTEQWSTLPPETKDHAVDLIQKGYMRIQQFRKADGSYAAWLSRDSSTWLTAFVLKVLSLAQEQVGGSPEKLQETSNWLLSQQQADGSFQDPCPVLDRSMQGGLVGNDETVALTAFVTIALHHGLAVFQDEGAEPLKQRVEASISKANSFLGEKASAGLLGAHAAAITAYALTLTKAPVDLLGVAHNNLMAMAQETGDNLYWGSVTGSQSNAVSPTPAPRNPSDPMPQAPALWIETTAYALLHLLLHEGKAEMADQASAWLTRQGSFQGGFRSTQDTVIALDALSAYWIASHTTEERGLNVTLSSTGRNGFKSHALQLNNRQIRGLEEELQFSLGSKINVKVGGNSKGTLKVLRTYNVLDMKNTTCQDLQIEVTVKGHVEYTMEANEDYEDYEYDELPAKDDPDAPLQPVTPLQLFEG
T1 chain 3: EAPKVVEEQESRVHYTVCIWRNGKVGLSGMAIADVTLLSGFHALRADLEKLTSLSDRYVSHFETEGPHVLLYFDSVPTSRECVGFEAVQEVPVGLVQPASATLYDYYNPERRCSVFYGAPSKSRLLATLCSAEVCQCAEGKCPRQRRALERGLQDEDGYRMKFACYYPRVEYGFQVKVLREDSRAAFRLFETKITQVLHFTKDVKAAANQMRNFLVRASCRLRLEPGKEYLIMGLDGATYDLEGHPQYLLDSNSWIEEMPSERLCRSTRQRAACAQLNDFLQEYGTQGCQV

B1: Const. No. 1: HSA-GGSSGG-hCFI; F559W (enzyme)
chain: [not shown - about 600 residues]GGSSGGKVTYTSQEDLVEKKCLAKKYTHLSCDKVFCQPWQRCIEGTCVCKLPYQCPKNGTAVCATNRRSFPTYCQQKSLECLHPGTKFLNNGTCTAEGKFSVSLKHGNTDSEGIVEVKLVDQDKTMFICKSSWSMREANVACLDLGFQQGADTQRRFKLSDLSINSTECLHVHCRGLETSLAECTFTKRRTMGYQDFADVVCYTQKADSPMDDFFQCVNGKYISQMKACDGINDCGDQSDELCCKACQGKGFHCKSGVCIPSQYQCNGEVDCITGEDEVGCAGFASVTQEETEILTADMDAERRRIKSLLPKLSCGVKNRMHIRRKRIVGGKRAQLGDLPWQVAIKDASGITCGGIYIGGCWILTAAHCLRASKTHRYQIWTTVVDWIHPDLKRIVIEYVDRIIFHENYNAGTYQNDIALIEMKKDGNKKDCELPRSIPACVPWSPYLFQPNDTCIVSGWGREKDNERVFSLQWGEVKLISNCSKFYGNRFYEKEMECAGTYDGSIDACKGDSGGPLVCMDANNVTYVWGVVSWGENCGKPEFPGVYTKVANYFDWISYHVGRPWISQYNV
B2: Const. No. 7: HSA-GGSSGG-hCFI; P433A (enzyme)
chain: [not shown - about 600 residues]GGSSGGKVTYTSQEDLVEKKCLAKKYTHLSCDKVFCQPWQRCIEGTCVCKLPYQCPKNGTAVCATNRRSFPTYCQQKSLECLHPGTKFLNNGTCTAEGKFSVSLKHGNTDSEGIVEVKLVDQDKTMFICKSSWSMREANVACLDLGFQQGADTQRRFKLSDLSINSTECLHVHCRGLETSLAECTFTKRRTMGYQDFADVVCYTQKADSPMDDFFQCVNGKYISQMKACDGINDCGDQSDELCCKACQGKGFHCKSGVCIPSQYQCNGEVDCITGEDEVGCAGFASVTQEETEILTADMDAERRRIKSLLPKLSCGVKNRMHIRRKRIVGGKRAQLGDLPWQVAIKDASGITCGGIYIGGCWILTAAHCLRASKTHRYQIWTTVVDWIHPDLKRIVIEYVDRIIFHENYNAGTYQNDIALIEMKKDGNKKDCELPRSIAACVPWSPYLFQPNDTCIVSGWGREKDNERVFSLQWGEVKLISNCSKFYGNRFYEKEMECAGTYDGSIDACKGDSGGPLVCMDANNVTYVWGVVSWGENCGKPEFPGVYTKVANYFDWISYHVGRPFISQYNV
B3: Const. No. 27: HSA-GGSSGG-hCFI; E401R (enzyme)
chain: [not shown - about 600 residues]GGSSGGKVTYTSQEDLVEKKCLAKKYTHLSCDKVFCQPWQRCIEGTCVCKLPYQCPKNGTAVCATNRRSFPTYCQQKSLECLHPGTKFLNNGTCTAEGKFSVSLKHGNTDSEGIVEVKLVDQDKTMFICKSSWSMREANVACLDLGFQQGADTQRRFKLSDLSINSTECLHVHCRGLETSLAECTFTKRRTMGYQDFADVVCYTQKADSPMDDFFQCVNGKYISQMKACDGINDCGDQSDELCCKACQGKGFHCKSGVCIPSQYQCNGEVDCITGEDEVGCAGFASVTQEETEILTADMDAERRRIKSLLPKLSCGVKNRMHIRRKRIVGGKRAQLGDLPWQVAIKDASGITCGGIYIGGCWILTAAHCLRASKTHRYQIWTTVVDWIHPDLKRIVIEYVDRIIFHRNYNAGTYQNDIALIEMKKDGNKKDCELPRSIPACVPWSPYLFQPNDTCIVSGWGREKDNERVFSLQWGEVKLISNCSKFYGNRFYEKEMECAGTYDGSIDACKGDSGGPLVCMDANNVTYVWGVVSWGENCGKPEFPGVYTKVANYFDWISYHVGRPFISQYNV
B4: Const. No. 39: HSA-GGSSGG-hCFI; A55P (enzyme)
chain: [not shown - about 600 residues]GGSSGGKVTYTSQEDLVEKKCLAKKYTHLSCDKVFCQPWQRCIEGTCVCKLPYQCPKNGTPVCATNRRSFPTYCQQKSLECLHPGTKFLNNGTCTAEGKFSVSLKHGNTDSEGIVEVKLVDQDKTMFICKSSWSMREANVACLDLGFQQGADTQRRFKLSDLSINSTECLHVHCRGLETSLAECTFTKRRTMGYQDFADVVCYTQKADSPMDDFFQCVNGKYISQMKACDGINDCGDQSDELCCKACQGKGFHCKSGVCIPSQYQCNGEVDCITGEDEVGCAGFASVTQEETEILTADMDAERRRIKSLLPKLSCGVKNRMHIRRKRIVGGKRAQLGDLPWQVAIKDASGITCGGIYIGGCWILTAAHCLRASKTHRYQIWTTVVDWIHPDLKRIVIEYVDRIIFHENYNAGTYQNDIALIEMKKDGNKKDCELPRSIPACVPWSPYLFQPNDTCIVSGWGREKDNERVFSLQWGEVKLISNCSKFYGNRFYEKEMECAGTYDGSIDACKGDSGGPLVCMDANNVTYVWGVVSWGENCGKPEFPGVYTKVANYFDWISYHVGRPFISQYNV
B5: Const. No. 6: HSA-GGSSGG-hCFI; L307Y (enzyme)
chain: [not shown - about 600 residues]GGSSGGKVTYTSQEDLVEKKCLAKKYTHLSCDKVFCQPWQRCIEGTCVCKLPYQCPKNGTAVCATNRRSFPTYCQQKSLECLHPGTKFLNNGTCTAEGKFSVSLKHGNTDSEGIVEVKLVDQDKTMFICKSSWSMREANVACLDLGFQQGADTQRRFKLSDLSINSTECLHVHCRGLETSLAECTFTKRRTMGYQDFADVVCYTQKADSPMDDFFQCVNGKYISQMKACDGINDCGDQSDELCCKACQGKGFHCKSGVCIPSQYQCNGEVDCITGEDEVGCAGFASVTQEETEILTADMDAERRRIKSLLPKYSCGVKNRMHIRRKRIVGGKRAQLGDLPWQVAIKDASGITCGGIYIGGCWILTAAHCLRASKTHRYQIWTTVVDWIHPDLKRIVIEYVDRIIFHENYNAGTYQNDIALIEMKKDGNKKDCELPRSIPACVPWSPYLFQPNDTCIVSGWGREKDNERVFSLQWGEVKLISNCSKFYGNRFYEKEMECAGTYDGSIDACKGDSGGPLVCMDANNVTYVWGVVSWGENCGKPEFPGVYTKVANYFDWISYHVGRPFISQYNV
B6: Const. No. 23: HSA-GGSSGG-hCFI; R62E (enzyme)
chain: [not shown - about 600 residues]GGSSGGKVTYTSQEDLVEKKCLAKKYTHLSCDKVFCQPWQRCIEGTCVCKLPYQCPKNGTAVCATNRESFPTYCQQKSLECLHPGTKFLNNGTCTAEGKFSVSLKHGNTDSEGIVEVKLVDQDKTMFICKSSWSMREANVACLDLGFQQGADTQRRFKLSDLSINSTECLHVHCRGLETSLAECTFTKRRTMGYQDFADVVCYTQKADSPMDDFFQCVNGKYISQMKACDGINDCGDQSDELCCKACQGKGFHCKSGVCIPSQYQCNGEVDCITGEDEVGCAGFASVTQEETEILTADMDAERRRIKSLLPKLSCGVKNRMHIRRKRIVGGKRAQLGDLPWQVAIKDASGITCGGIYIGGCWILTAAHCLRASKTHRYQIWTTVVDWIHPDLKRIVIEYVDRIIFHENYNAGTYQNDIALIEMKKDGNKKDCELPRSIPACVPWSPYLFQPNDTCIVSGWGREKDNERVFSLQWGEVKLISNCSKFYGNRFYEKEMECAGTYDGSIDACKGDSGGPLVCMDANNVTYVWGVVSWGENCGKPEFPGVYTKVANYFDWISYHVGRPFISQYNV

This assay addresses T1, human C4b. The experiment in a line: cell-based or functional assay.
With B1, the “C4c EC50” value came to 183 nM.

In the case of B2, the “C4c EC50” value was found to be 908 nM.

As for B3, the “C4c EC50” value stood at 47 nM.

With B4, the “C4c EC50” value amounted to 203 nM.

In the case of B5, the “C4c EC50” value stood at 104 nM.

For the molecule B6, the “C4c EC50” value amounted to 1210 nM.

Values taken from US20250011379A1 (VERTEX PHARMACEUTICALS, published 2025).
